Measured values reported in a collection of fitness landscapes (doi:10.1016/j.celrep.2020.107928).
In all, about 81,000 sequences were measured (“one-hybrid fitness for binding parS DNA”: median about -0.17, highest 2% from about 0.51 on). The list shows a part of the results.

B1: Caulobacter ParB omega fusion; a variant is named by its letters at X, in order, B8GW30 (parent)
chain: MESVVVGEPGMSEGRRGLGRGLSALLGEVDAAPAQAPGEQLGGSREAPIEILQRNPDQPRRTFREEDLEDLSNSIREKGVLQPILVRPSPDTAGEYQIVAGERAWRAAQRAGLKTVPIMVRELDDLAVLEIGIIENVQRADLNVLEEALSYKVLMEKFERTQENIAQTIGKSXSHVANXMRLLXLPDEVQSYLVSGELTAXHARAIAAAADPVALAKQIIEGGLSVRETEALARKAPNLSAGKSKGGRPPRVKDTDTQALESDLSSVLGLDVSIDHRGSTGTLTITYATLEQLDDLCNRLTRGI

Variants of: B1
Test: one-hybrid fitness for binding parS DNA (scaled: cognate 1, non-cognate 0); higher = stronger binding
Details: with parS DNA site
Outline: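 Fitness here means the log change in variant-to-wild-type read ratio between plasmids sequenced before and after selection. That scale was set so cognate equals 1 and non-cognate equals 0. The selection was a bacterial one-hybrid screen of Caulobacter ParB libraries, four specificity codons randomised, in E. coli USO carrying a HIS3 reporter with the site 19 bp from the promoter, grown 48 hours at 37°C on M9-minus-histidine with 0.1 mM IPTG and 5 mM 3-AT.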

| Variant | one-hybrid fitness for binding parS DNA |
| --- | --- |
| PVKH | ≤ 0.2 |
| EFLA | ≤ 0.2 |
| PLKV | ≤ 0.2 |
| VKNS | ≤ 0.2 |
| WAPQ | ≤ 0.2 |
| AQSH | ≤ 0.2 |
| CFSS | ≤ 0.2 |
| RFWG | 0.744 |
| PNLG | ≤ 0.2 |
| EDAV | ≤ 0.2 |
| AMPV | ≤ 0.2 |
| PLQH | ≤ 0.2 |
| VVRM | ≤ 0.2 |
| PALR | ≤ 0.2 |
| AALS | ≤ 0.2 |
| EPWR | ≤ 0.2 |
| LTGT | ≤ 0.2 |
| SNRL | ≤ 0.2 |
| WQPV | ≤ 0.2 |
| PDAC | ≤ 0.2 |
| IVTL | ≤ 0.2 |
| DEKT | ≤ 0.2 |
| QTIR | ≤ 0.2 |
| DNPY | 0.219 |
| QAHS | ≤ 0.2 |
| NPSR | ≤ 0.2 |
| YGRR | ≤ 0.2 |

| Variant | one-hybrid fitness for binding parS DNA |
| --- | --- |
| QRCE | ≤ 0.2 |
| ALGF | ≤ 0.2 |
| TWAT | ≤ 0.2 |
| EDKG | ≤ 0.2 |
| CCES | ≤ 0.2 |
| TTPS | ≤ 0.2 |
| PSHE | ≤ 0.2 |
| MGHR | ≤ 0.2 |
| ARQT | ≤ 0.2 |
| GTCC | ≤ 0.2 |
| QCYW | ≤ 0.2 |
| VSHY | ≤ 0.2 |
| DRLC | ≤ 0.2 |
| RPKV | ≤ 0.2 |
| YAMC | ≤ 0.2 |
| ELAC | ≤ 0.2 |
| RMAA | 0.59 |
| YWSR | ≤ 0.2 |
| ATFT | ≤ 0.2 |
| ISAN | ≤ 0.2 |
| MLGP | ≤ 0.2 |
| YFKC | ≤ 0.2 |
| RCKY | 0.716 |
| AWLV | ≤ 0.2 |
| IVKK | ≤ 0.2 |
| ICYT | ≤ 0.2 |
| DAIR | ≤ 0.2 |

| Variant | one-hybrid fitness for binding parS DNA |
| --- | --- |
| FYPK | ≤ 0.2 |
| PAYK | ≤ 0.2 |
| RESA | ≤ 0.2 |
| SLMM | ≤ 0.2 |
| ARVW | ≤ 0.2 |
| GNHL | ≤ 0.2 |
| NGYI | ≤ 0.2 |
| LENG | ≤ 0.2 |
| CMPL | ≤ 0.2 |
| MRMS | ≤ 0.2 |
| YMLG | ≤ 0.2 |
| IPCT | ≤ 0.2 |
| QLRI | ≤ 0.2 |
| SSWR | ≤ 0.2 |
| PFKA | ≤ 0.2 |
| ANHT | ≤ 0.2 |
| PTQL | ≤ 0.2 |
| AWYS | ≤ 0.2 |
| CAVL | ≤ 0.2 |
| NNLS | ≤ 0.2 |
| AMYL | ≤ 0.2 |
| FRHL | ≤ 0.2 |
| TQQN | ≤ 0.2 |
| AAHM | ≤ 0.2 |
| DCEV | ≤ 0.2 |
| LWSG | ≤ 0.2 |
